Results from publication PMC6451091.
Some of the results follow. At the low end of the ranking, values are background and their order means little.

target: PU.1 (IVT) (UniProt P17947); assay: protein-binding microarray (PBM); settings: 20 mM HEPES pH 7.9, 100 mM NaCl, 1 mM DTT, 0.2 mg/mL BSA, 0.02% Triton X-100, 2% milk, 0.4 mg/mL salmon testes DNA; 1 h; temperature not stated; high values mean tight binding; double strand, one strand shown; sequences stand for … in GCCTAGCAC…GTGCTAGGTCTTGATTCGCTTGACGCTGCTG

**Q.** For TTGCCAGGGAAGTGAAAGCA, which binding signal is on record?
**A.** 1.07 z-score

**Q.** Which binding signal does the source give for AAGGTGAGGAACTGAAACTT here?
**A.** 2.16 z-score

**Q.** How did the binding signal turn out when CAGGCAAGGAACTGAAACTC was run?
**A.** 0.221 z-score

**Q.** With TGAGAGGAGAAGTGAGACCT as the sequence, how does the binding signal read?
**A.** 1.06 z-score

**Q.** TAAAGGATGAACTGAAACCA was tested. Which binding signal did it give?
**A.** -0.0618 z-score

**Q.** With CTGGCAGGGAACTGAGACTC as the sequence, how does the binding signal read?
**A.** 0.534 z-score

**Q.** With GGAGAGGAGAAGTGAAACCT as the sequence, how does the binding signal read?
**A.** 1.23 z-score

**Q.** GGGGAGAGGAAGTGAAAGCA was tested. Which binding signal did it give?
**A.** 4.09 z-score

**Q.** For GATAAGAGGAACAGAAAGCT, which binding signal is on record?
**A.** 2.37 z-score

**Q.** How did the binding signal turn out when AAAAATAGGAAGTGAAACTG was run?
**A.** 6.16 z-score

**Q.** For TGAAACAGCAAGTGAAACCA, which binding signal is on record?
**A.** -0.513 z-score

**Q.** Which binding signal does the source give for CAAAGAAGGAAGTGAAACTG here?
**A.** 4.74 z-score

**Q.** How did the binding signal turn out when CTGCCAGGGAAGTGAAAGTA was run?
**A.** 1.1 z-score

**Q.** Which binding signal does the source give for TGTGAAAGGAAGTGAAACTG here?
**A.** 1.87 z-score

**Q.** Which binding signal does the source give for TGAGAGTAGAAGTGAAACCT here?
**A.** 0.287 z-score

**Q.** CGAAACAGGAAGTGAAACCA was tested. Which binding signal did it give?
**A.** 6.68 z-score

**Q.** How did the binding signal turn out when TGCAGGTGGAAGTGAAACTG was run?
**A.** 1.39 z-score

**Q.** Which binding signal does the source give for GTAACAAGGAACTGAAACTC here?
**A.** 1.75 z-score

**Q.** For TAAAGGAGGAACTGAAAACA, which binding signal is on record?
**A.** 3.62 z-score

**Q.** Which binding signal does the source give for TAAACGAGGAACTGAAACCA here?
**A.** 1.99 z-score

**Q.** Which binding signal does the source give for GATAAGAGGAACTGAAAGCA here?
**A.** 4.01 z-score

**Q.** How did the binding signal turn out when CTGCCAGGGAATTGAAAGCA was run?
**A.** -0.456 z-score

**Q.** TAAAGGAGGTACTGAAACCA was tested. Which binding signal did it give?
**A.** 0.362 z-score

**Q.** With CTGCCAGGGAAATGAAAGCA as the sequence, how does the binding signal read?
**A.** -0.0473 z-score

**Q.** For TGAAACAAGAAGTGAAACCT, which binding signal is on record?
**A.** 1.42 z-score

**Q.** How did the binding signal turn out when GAAAGGAGGAACTGAAACCA was run?
**A.** 4.12 z-score

**Q.** TCAAACAGGAAGTGAAACCA was tested. Which binding signal did it give?
**A.** 5.59 z-score

**Q.** Which binding signal does the source give for TGACAGGAGAAGTGAAACCT here?
**A.** 0.655 z-score

**Q.** TGAAAAAGGAAGTGAAACCA was tested. Which binding signal did it give?
**A.** 5.02 z-score

**Q.** For ATAGGGAGGAAGTGAAACTT, which binding signal is on record?
**A.** 3.73 z-score

**Q.** How did the binding signal turn out when TGAAGCAGGAAGTGAAACCA was run?
**A.** 3.23 z-score

**Q.** With AAAAAAAGGAAATGACAGTA as the sequence, how does the binding signal read?
**A.** 3.34 z-score

**Q.** For GTTTTGAGGAAGTGAAACTC, which binding signal is on record?
**A.** 6.52 z-score
